# According to paper PMC4336329 (PLoS ONE, 2015):
# Out of some 310,000 compounds screened, about 2,200 (0.71%) showed an effect of 50% or more. Effects have a minus sign here. The list shows a part of the results.
# Molecular target: human ether-à-go-go-related gene (hERG) potassium channel (human, UniProt Q12809)
# Assay: primary screen, population patch clamp on CHO cells stably expressing hERG
# human ether-à-go-go-related gene (hERG) potassium channel, sequence (Q12809 whole entry, looked up): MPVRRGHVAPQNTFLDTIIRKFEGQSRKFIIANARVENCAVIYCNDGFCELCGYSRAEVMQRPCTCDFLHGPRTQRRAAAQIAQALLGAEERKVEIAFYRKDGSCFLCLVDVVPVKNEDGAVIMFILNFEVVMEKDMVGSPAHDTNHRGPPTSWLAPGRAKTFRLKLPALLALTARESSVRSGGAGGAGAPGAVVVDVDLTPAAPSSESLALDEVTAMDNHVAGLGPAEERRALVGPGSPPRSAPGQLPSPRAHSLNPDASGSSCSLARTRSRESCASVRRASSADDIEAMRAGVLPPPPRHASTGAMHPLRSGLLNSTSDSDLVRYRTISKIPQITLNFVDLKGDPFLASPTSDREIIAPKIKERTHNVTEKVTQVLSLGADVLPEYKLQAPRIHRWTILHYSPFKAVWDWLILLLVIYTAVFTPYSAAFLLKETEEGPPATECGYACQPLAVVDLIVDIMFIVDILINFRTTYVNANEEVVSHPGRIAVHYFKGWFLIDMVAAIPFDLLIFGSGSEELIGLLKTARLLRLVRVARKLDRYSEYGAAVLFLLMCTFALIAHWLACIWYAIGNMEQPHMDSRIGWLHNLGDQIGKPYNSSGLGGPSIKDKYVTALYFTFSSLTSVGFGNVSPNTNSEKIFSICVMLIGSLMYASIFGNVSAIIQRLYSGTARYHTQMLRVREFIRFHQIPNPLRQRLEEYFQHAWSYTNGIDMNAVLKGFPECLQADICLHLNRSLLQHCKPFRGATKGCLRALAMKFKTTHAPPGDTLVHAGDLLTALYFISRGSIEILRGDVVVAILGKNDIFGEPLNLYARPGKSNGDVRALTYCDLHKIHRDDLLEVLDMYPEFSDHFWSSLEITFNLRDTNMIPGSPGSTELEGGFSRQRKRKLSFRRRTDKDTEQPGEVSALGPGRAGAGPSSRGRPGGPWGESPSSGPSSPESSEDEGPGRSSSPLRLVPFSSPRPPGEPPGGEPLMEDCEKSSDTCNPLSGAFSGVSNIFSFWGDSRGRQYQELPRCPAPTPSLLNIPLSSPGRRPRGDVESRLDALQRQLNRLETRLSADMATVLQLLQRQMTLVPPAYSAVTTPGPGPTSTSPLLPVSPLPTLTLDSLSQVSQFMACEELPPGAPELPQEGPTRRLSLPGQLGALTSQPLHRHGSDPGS
row,SMILES,"hERG current change (%, negative = inhibition) at 1uM"
1,CNC(=S)N1N=C(c2ccc(C)cc2)CC1c1ccc(OC)cc1 (centres unmarked),8.97%
2,CCCCN(C(=O)c1ccc(Br)o1)C1CCS(=O)(=O)C1 (centres unmarked),2.4%
3,COc1cccc(NC(=O)NC(=O)c2c(C)cc(Cl)nc2Cl)c1,5.15%
4,CCN1CCCC1CNC(=O)c1cc(N)ccc1OC.O.O=C(O)C(=O)O (centres unmarked),15.5%
5,COc1ccccc1NCCC(=O)O,15.7%
6,CCSc1nnc(SCC(=O)N2CCN(C(=O)c3ccco3)CC2)s1,5.62%
7,CC#CC[N+](C)(C)CC(=O)c1ccccc1.[Br-],13.5%
8,NC(=O)c1ccc(C(=O)N/N=C(/Cc2ccccc2)c2ccccc2)cc1,16.4%
9,c1cc(-c2noc(CCC3CCCC3)n2)ccn1,5.95%
10,Cc1ncn2cc(-c3ccc(Cl)cc3Cl)[nH]c(=O)c12,12%
11,O=C(N/C(=C\c1cccc([N+](=O)[O-])c1)C(=O)N1CCCCC1)c1cccs1,4.76%
12,CC(=O)c1cccc(NC(=O)N2CCN(S(C)(=O)=O)CC2)c1,4.94%
13,O=C(OCC(=O)N1CCOCC1)c1c(Cl)ccc(Cl)c1Cl,10.5%
14,COc1cccc(NC(=O)c2cc([N+](=O)[O-])ccc2N2CCN(C)CC2)c1,-12.4%
15,Cc1ccccc1Nc1ncnc(N)n1,-2.79%
16,Cc1cc(C)nc(NS(=O)(=O)c2ccc(-n3cccc3)cc2)n1,8.65%
17,CC(C)OP(=O)(OC(C)C)C(NC(=O)c1ccccc1Br)C(N)=O (centres unmarked),15.2%
18,Nc1c2c(nc3sc4c(c13)CCCC4)-c1ccccc1CC2,14.2%
19,Cc1cnc(NC(=O)c2ccncc2)s1,14.2%
20,Cc1ccc(C(C#N)c2ccc3c(C(F)(F)F)cc(C(F)(F)F)nc3n2)cc1 (centres unmarked),11.8%
21,CNC(=O)C1(C)C=CCN1C(=O)c1ccccc1 (centres unmarked),15.4%
22,CC(C)N1CCc2c(sc(NC(=O)c3ccc([N+](=O)[O-])o3)c2C(N)=O)C1.Cl,11.5%
23,CCOC(=O)C1CCCN(C(=O)c2sc3nc4n(c(=O)c3c2C)CCC4)C1 (centres unmarked),3.76%

row,SMILES,"hERG current change (%, negative = inhibition) at 1uM"
1,COc1ccccc1OC(C)C(=O)Nc1nc(-c2ccc(S(=O)(=O)N3CCOCC3)cc2)cs1 (centres unmarked),15.8%
2,COc1ccccc1C(=O)Nc1cccc(NC(C)=O)c1,0.451%
3,O=C(C1CC1)N(CCc1ccccc1)Cc1nc2ccccc2c(=O)[nH]1,-10.8%
4,CCOc1ccccc1-n1nnnc1SCC(=O)OC,15.2%
5,Cc1ccc2c(c1)C1CN(C)CCC1N2C(=O)Nc1cccc(Cl)c1 (centres unmarked),-10.3%
6,Cl.OC1(c2ccccc2)CNCCc2ccccc21 (centres unmarked),12.5%
7,Cc1ccc(/C([O-])=C(/C(=S)NCc2ccco2)[n+]2ccccc2)cc1,9.21%
8,COC(=O)c1cc2c(C)nn(-c3ccccc3)c2s1,4.06%
9,NC(=O)C1CCN(C(=O)COc2ccc(S(=O)(=O)NCc3ccccc3)cc2Cl)CC1,4.5%
10,Cn1c(N)c(C(=O)COC(=O)c2ccco2)c(=O)n(C)c1=O,9.87%
11,Cc1cc2oc(C(=O)N3CCN(CCc4ccccn4)CC3)c(C)c2cc1C,-6.88%
12,C[C@@H](O)CC(=O)O,-4.49%
13,O=C(c1nc2ncccn2n1)N1CCN(c2ccc(F)cc2)CC1,-10.1%
14,c1ccc2c(c1)nc(NC1CCCCC1)c1nncn12,-1.51%
15,COc1ccc(-c2cc(C)no2)cc1S(=O)(=O)N1CC(=O)Nc2ccccc21,16.6%
16,COc1ccccc1OCCOc1ccc(C(=O)c2ccccc2)cc1,6.16%
17,COCCCn1c(SCC(=O)N2CCCCC2C)nnc1-c1ccco1 (centres unmarked),4.52%
18,O=C(CC(C(=O)O)c1ccccc1)Nc1ccccc1 (centres unmarked),13.7%
19,Cc1ccc(NC2(c3nnnn3-c3c(C)cccc3C)CCCCC2)cc1,10.1%
20,CC1(C)Oc2ccc3ccc(=O)oc3c2C(/C=N/O)C1=O (centres unmarked),17.3%
21,CCOc1ccccc1NC(=O)c1nc(-c2ccccc2)oc1C,8.2%
22,O=c1c2ccccc2cnn1Cc1n[nH]c(=S)n1-c1ccc(Cl)cc1,3.76%
23,Nc1[nH]n(-c2ccccc2)c(=O)c1N=Nc1ccc2c(c1)OCO2,9.34%

row,SMILES,"hERG current change (%, negative = inhibition) at 1uM"
1,COCCn1c(SCC(=O)Nc2cccc(F)c2)nc2c(c1=O)SCC2,9.53%
2,O=C1C2CC(O)CN2C(=O)N1c1ccccc1 (centres unmarked),8.62%
3,O=c1[nH]c(=O)n(Cc2ccccc2)c(O)c1/C=C1\C=Nc2ccccc21,9.58%
4,CCOC(=O)c1c(-c2cccc(C)c2)csc1NC(=O)c1c(-c2ccccc2)noc1C,1.55%
5,NNC(=O)[C@H](Cc1ccccc1)NC(=O)NCCc1ccccc1,4.49%
6,Cc1cccc(C(=O)Oc2ccccc2/C=N/NC(=O)c2ccc(NC(=O)C(C)(C)C)cc2)c1,0.901%
7,COc1ccccc1C(C)NCC(=O)Nc1c(F)cccc1F (centres unmarked),10.4%
8,COCCn1nnnc1C(c1ccc2ncccc2c1)N1CCc2ccccc21 (centres unmarked),13.9%
9,O=C(O)CSCCC(=O)Nc1ccc(F)cc1,-9.27%
10,CCOC(=O)CSc1nc2cc(C(=O)NCC3CCCO3)ccc2c(=O)n1Cc1ccco1 (centres unmarked),-18.2%
11,CCCCCn1c(Sc2ccccc2)nc2c1c(=O)[nH]c(=O)n2C,8.06%
12,CSc1nc(N(C)NC(=O)c2cccc(C)c2)c2ccccc2n1,3.46%
13,COc1cccc(S(=O)(=O)NCC(=O)N2CCCCCC2)c1,25%
14,Cc1ccc(NC(=O)Cc2ccc(Cl)cc2)cc1S(=O)(=O)N1CCCCCC1,10.8%
15,Cc1cc(C)nc(SCc2nnc(SCC(=O)Nc3ccccc3C)n2Cc2ccco2)n1,1.01%
16,O=C(Nc1nnc(-c2cccnc2)o1)c1cccc(Cl)c1,3.43%
17,Cc1ccccc1-n1c(SCC(=O)N2CCCC2)nnc1-c1ccccn1,18.4%
18,CSc1nc2oc3c(c2c2nncn12)CC(C)(C)SC3,-1.53%
19,Cc1ccc2c(CN3CCC(C(N)=O)CC3)cc(=O)oc2c1C,15.2%
20,CC(=O)N/N=C(\C)C1COc2ccccc2O1 (centres unmarked),7.92%
21,CCOc1ccc2[nH]c(=O)c(CN(CCN3CCOCC3)Cc3nnnn3C(C)(C)CC)cc2c1,12.1%
22,O=C1CNC(=O)c2c(nc3n2CCC3)N1,5.97%
23,O=C(O)CCNC(=O)C12CC3CC(CC(C3)C1)C2,19.2%

row,SMILES,"hERG current change (%, negative = inhibition) at 1uM"
1,O=C1C2C3C=CC(C3)C2C(=O)N1/N=C/c1ccc(-c2ccccc2[N+](=O)[O-])o1 (centres unmarked),0.69%
2,COc1ccc(Cl)cc1S(=O)(=O)N1CCC(C(=O)NCCC2=CCCCC2)CC1,-10.9%
3,O=C(CCN1C(=O)/C(=C/c2ccco2)SC1=S)Nc1ccc(C(=O)O)c(O)c1,13%
4,CC(=O)Nc1ccc(NC(=O)c2cccc(-c3cc4ccccc4oc3=O)c2)cc1,-0.272%
5,O=C(NCC1CC1)c1ccc2c(c1)S(=O)(=O)c1cc(Cl)ccc1C2=O,-1.27%
6,C=CCNc1cc(C(F)(F)F)nc(-c2ccccn2)n1,0.638%
7,Cc1nc2ccc(Cl)cc2c(-c2ccccc2)c1C(=O)[O-].N[NH3+],12.1%
8,CC1CN(S(=O)(=O)N2CCOCC2)CCN1S(=O)(=O)N1CCOCC1 (centres unmarked),14.8%
9,CCCCCN(C(=O)CN1CCC(Cc2ccccc2)CC1)c1c(N)n(CCCC)c(=O)[nH]c1=O,7.45%
10,NS(=O)(=O)c1ccc(NC(=O)C2Cc3ccccc3C(=O)O2)cc1 (centres unmarked),2.87%
11,Cc1cc(C)c(OCC(=O)OCC(=O)NC2CCCCCCC2)c(C)c1,6.08%
12,C#CCNC(=O)C1=C[C@H](c2csc3ccccc23)C[C@H](OCCCCO)O1,3.8%
13,COc1ccc(C2CC(c3ccc(F)cc3)Nc3nc(N)nn32)cc1 (centres unmarked),-0.311%
14,Cc1cccc(C(=O)N2CCC(Cc3ccccc3)CC2)c1[N+](=O)[O-],-3.03%
15,Cc1cccc(C(=O)OCC(=O)Nc2ccc3c(c2)OCCO3)c1O,10.5%
16,CCCN(CCC)S(=O)(=O)c1ccc(C(=O)N2CCOCC2)cc1,-0.629%
17,O=C(COC(=O)CNC(=O)c1ccc(Cl)c([N+](=O)[O-])c1)NNC(=O)c1ccccc1F,-2.97%
18,Cc1cc(C)c(C#N)c(Nc2cccc(Br)c2)n1,10.3%
19,CSCCC(NC(=O)COc1ccccc1)C(=O)NC1CCC(C)CC1 (centres unmarked),2.98%
20,CCOC(=O)C1CCN(C(=O)c2sccc2Cl)CC1,12.5%
21,COc1ccc(CC(=O)NNS(=O)(=O)c2ccc(F)cc2)cc1,13.8%
22,Cn1c(C(=O)O)cc2cc(F)ccc21,-4.02%
23,COc1ccc(NC(=O)CN(C)C(=O)c2cn(-c3ccccc3)nc2-c2ccc(OC)cc2)cc1,4.36%
